# The list shows a part of the results.
# System: PfHDP1 homeodomain (GST-tagged)
# Test: gcPBM binding intensity (ln(normalized median fluorescence intensity)); higher = stronger DNA binding
# Summary of the method: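 Binding intensity is defined as the maximum Masliner-normalised natural-log median intensity across replicate spots for either probe orientation. It was measured on an Agilent 4 × 180k array of primer-extended double-stranded 36-bp intergenic genomic probes and negative controls, to which GST-tagged P. falciparum DNA-binding domains made in E. coli were applied for 1 h in 1× PBS with 1% milk, 0.2 mg/ml BSA, 0.5% salmon testes DNA and 0.03% Triton X-100. Detection was by Alexa488 anti-GST antibody and scanning at 488 nm.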
row,Sequence,gcPBM binding intensity (ln)
1,TGTATATTTTTTATTACACACTTTTTACTTTTTAGA [CACACA_site3069],6.46
2,TTTTTTAATTGTGATACGTATATTATTTAATGATAA [GTGCAC_negctrl_site704],6.41
3,ATAAAATATAGATGCACACACATATAGATTTCATAC [CACACA_site7636],8.42
4,ATCTGTCGACAGGACAGTACACAGTAGCCAGTAACT [XGTACX_site2001],6.09
5,ATATATATATATAGTGCACACATATAAAATATATAT [CACACA_site8884],10.3
6,TTATATGCTCAATGTTGTACATGTAGATATATATAT [XGTACX_site8211],9.77
7,TATTTATCATCATATTGTACATTATATATATAAAAT [XGTACX_site6675],6.7
8,AATAAAAAAATGTCACGTACTTATTTTATTAAACCT [XGTACX_site3031],6.48
9,GTATGGCGTATCATATGTACTAAAAAAAAATAAAAA [XGTACX_site5101],6.49
10,AAGTATGTCGACTGTTGTACTTTTATCATTTATTAT [XGTACX_site1129],6.6
11,ATATACTATGATAATACATGCGATAATACATTTTTA [TGCATGCA_site387],6.25
12,GCTTTAATCTGAAAGTGTACAGATAATATATTTATA [XGTACX_site2462],6.32
13,TGCATTATTTACAAGGTGCGTTACAAATGTGTAACA [GTGCAC_site9442],7.14
14,ATATATTATATATATATATATATATATTATTATTGT [TGCATGCA_negctrl_site286],7.58
15,TATGAATATTTGTATACATGCATATAGAAATCATAT [TGCATGCA_site533],6.43
16,TATTTGTAATATTATACACACATTATATATTACAAA [CACACA_site5804],6.97
17,TATTTTGTATATAAATGTACAAGTATATATTTTTTC [XGTACX_site7855],6.23
18,CGTAGCCACACTAACACACACAAATATACACAATCA [CACACA_site7379],6.71
19,ATTTAAATAACGTATGTATATACATATATATATATA [TGCATGCA_negctrl_site207],9.21
20,GATAAATGTATATATGCATGCACATATATTTATACA [TGCATGCA_site748],8.96
21,ATATATAGAATGTGTACACACATATGTATTTATATA [CACACA_site810],6.7
22,ATTTTTTATGGACAAAAGACCTCTGATGTAAATATA [CACACA_negctrl_site1081],6.22

row,Sequence,gcPBM binding intensity (ln)
1,AATTAGATTATGCACACACACTTAAAAATAATAAAT [CACACA_site7015],10.4
2,TTTTTTTTTTTCTTAGTGCGCGTGAAAAATATAAAA,6.53
3,TTACTCAAACAAACAAAAAAAAAAAAAAAAAAAAAA [TGCATGCA_negctrl_site457],5.82
4,TATATATATATTTTTGCATGTAATTTTTATGAGGAC [TGCATGCA_site884],8.37
5,TACTATAACGCACATACACACAAAAAAAAAAAAAAA [CACACA_site8073],7.97
6,TTATACATGAAATATTGTACACATATATATATATAT [XGTACX_site4378],9.41
7,ATATGGTGATATAGGTGTACATTTTGATGCTTATTT [XGTACX_site4283],6.53
8,AAGGGAAAATTAAGGTTGCACTAAAAATATATCTTT [GTGCAC_site9608],8.45
9,ATGAACATACAATATACACACATATATATTTATATT [CACACA_site4609],6.96
10,ATTCAAATTGTAGAAACACACAAAAACTTAACATAT [CACACA_site2617],6.86
11,TAGTTAACAAATAATGCACACAAATGGATAAAATTA [CACACA_site9240],10.6
12,CATATGATATGTTATACACACACGTATATATGAATT [CACACA_site3446],6.72
13,AAAAATAAAAAAATGACACACATATATATATATATA [CACACA_site2307],9.4
14,TATCTCTTATTTTATTGTACTTAACTATGCTATAAT [XGTACX_site4904],6.86
15,TAAGTATAATATTGATGTACATATAATAACTTGTAT [XGTACX_site417],6.2
16,ATTTATATATAATATACACACATATAATCCACATAT [CACACA_site699],7.14
17,AAGAGAAATTATAACATGTGAAATGTATTATATATA [TGCATGCA_negctrl_site254],6.26
18,TTTTTCATCATATGTTGTACAATGTGTAGATATATT [XGTACX_site3195],7.02
19,GAATAAATATTAAATGTGCACTTGAATAGATGTAAA,9.88
20,CACGCGCCCGGACACACACACACACCCATATATATA [CACACA_site5251],6.84
21,CTTTGTGTTAAAAGTAGTACACCAAAAATATGACTT [XGTACX_site622],6.4
22,AGATACGATTATATGCGTTCAATATACCAAATAATT [TGCATGCA_negctrl_site501],6.08

row,Sequence,gcPBM binding intensity (ln)
1,TAATATTATAGATAAACACACATACACATGTAAATA [CACACA_site7049],6.84
2,AAATGAAATTTGTATACACACAAATATATATATATA [CACACA_site836],9.07
3,TATAAGCAAAAACACACACACATATATATATATATA [CACACA_site3804],9.41
4,AATAATAATAGTAATATGTACATATATATATATATA [TGCATGCA_negctrl_site542],9.32
5,TTTTTATTCGATGATCAAATAGGTATATACAAAAAA [CACACA_negctrl_site1813],7.03
6,TTATTTAAAAAAAAGTGTACCCATATATTATAAATC [XGTACX_site8374],6.22
7,GCATCCCTTTTTATGTGTACATACAAAGGCAATTAC [XGTACX_site6977],6.92
8,TATTGTTTTAAAGAGACATGCAATATATATTATTCC [TGCATGCA_site752],6.43
9,AAAATATAAATCTAAGCATGCAAAAAAAATTTATAA [TGCATGCA_site1008],6.69
10,AATAATCATGATCAAAGTACTTATGAATACCAAAAA [XGTACX_site2572],7.05
11,AAAGACGCAAAATTGGTGCGCTGCTTTTAGCATTTT,6.65
12,AAAAAAAAAAAGTACACACATACATATAAATATATA [CACACA_site1809],6.41
13,ATTTATATCCTTAAACGTACATTGTATTGTATTTTA [XGTACX_site6080],6.43
14,ACAGAATATTTAATTCAACACACATACATATTTATT [CACACA_site8734],6.49
15,TATAAGGTGTCCTATACACACTCCAATAGATATATA [CACACA_site7066],6.27
16,AATTTATATTTTCGTAGTACGTATTTTATTCTTTTG [XGTACX_site4162],6.29
17,ATTACATGCAATATATGTACGTAATATATATATATA [XGTACX_site2300],9
18,CTGAACCCGTTATGGTGTACATAAAATAAGACACAG [XGTACX_site3484],6.4
19,TGCATGCATTATCATAGTACATATAATGTTGTATAA [XGTACX_site2775],6.56
20,TAATCTTTCGTACATGTACACACAGAAAAAAAAAAA [CACACA_site8798],6.46
21,TATTAAGTATTTTACGTACACACTTATAAATGTACA [CACACA_site3885],6.45
22,ATTATTAAGTTTCACAAGAACATTGTTAACAATTTT [CACACA_negctrl_site1128],6.39

row,Sequence,gcPBM binding intensity (ln)
1,TTTATATATGTAAATGCACACATATGTGTATATACT [CACACA_site8493],9.89
2,ATATATAATATTTTTATTTTTATTTTTTTTTTATGA [TGCATGCA_negctrl_site577],6.14
3,TACCATGTTCAAATTACACACATATAATGTAATATA [CACACA_site5150],6.56
4,ATTAAGTTCAAATGTAGTACGTGTAAAAAAAAAAAA [XGTACX_site1578],6.67
5,TATAGGTATATATTATGTACTTATAATTATATAGAT [XGTACX_site1912],6.36
6,AAAATAAATAAATAAATAAATATATATATATATATA [XGTACX_negctrl_site345],9.09
7,TTATTACATGTTACTTAACACACATCTGGTGAAATA [CACACA_site7939],6.56
8,AAAATATAGTAATATATATATGTATATTATTTGTGG [CACACA_negctrl_site1590],6.78
9,GGAAAGACAGTTCACAGTACCCAGTAAACTCTACGG [XGTACX_site2557],5.81
10,GAAAAAATTTTATGGTGTACTTTATTTATTTATATA [XGTACX_site6323],6.45
11,GATTATATTATATATTAAATATAAATATGTATTATA [TGCATGCA_negctrl_site66],6.15
12,ATGTTGTGTATATATACACACATACATATATATATA [CACACA_site8461],8.98
13,GAAATATTTAGACACACACACAAACATATAAATATA [CACACA_site6980],7.03
14,AAAAAAAATTAAAATAAATTAAAAAGTAATTATATA [GTGCAC_negctrl_site615],6.06
15,AATGAGAAGGACTGCACACTAAAATGGAAGGAGAAA [CACACA_site1575],6.97
16,AATGGAAATGTAAAATGTACAGGACGCACACACATA [XGTACX_site7788],6.7
17,TCAAAGCACACATACACACACATATAGATTTATATA [CACACA_site6272],6.85
18,TCTTCATAAAAATAAAGTACATTATATATATAAATA [XGTACX_site3775],6.37
19,TAAATAAATATATATTCACACACAAACATATATATA [CACACA_site9332],6.58
20,ATTAATATTATTAGAAGTACTAATAGTAGTATAACT [XGTACX_site1325],6.8
21,TTTTTATTATTCTTAAGGATATAACAAAAAAGAAAA [XGTACX_negctrl_site584],5.98
22,TTCTAAAAAAATAAAATTATCAAGGTTTTTAAACGT [CACACA_negctrl_site308],6.41

# — the supplement of paper PMC11417369
